# From the supplement of paper PMC12217912
# The list shows a part of the results. The full chains were built here from the parent and the listed change. Values near 0.05 are background.
# B1: TEV protease; numbered along this chain (parent)
# chain: MGESLFKGPRDYNPISSSICHLTNESDGHTTSLYGIGFGPFIITNKHLFRRNNGTLVVQSLHGVFKVKDTTTLQQHLVDGRDMIIIRMPKDFPPFPQKLKFREPQREERICLVTTNFQTKSMSSMVSDTSCTFPSGDGIFWKHWIQTKDGQCGSPLVSTRDGFIVGIHSASNFTNTNNYFTSVPKNFMELLTNQEAQQWVSGWRLNADSVLWGGHKVFMVKPEEPFQPVKEATQL
# Variants of: B1
# Assay: raw area under fraction-flipped curve 0-4 h after induction (AUC4h, not background-subtracted), DNA-recorder readout of cleavage of the substrate (dimensionless); higher = more cleavage of the substrate by the protease variant
# Details: temperature: 34 °C; time window: 0-4 h after rhamnose induction
# 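Also: Bxb1 expression induced with 0.2% (w/v) L-rhamnose at OD600 near 0.5, cultures sampled hourly, flipped fraction per protease–substrate barcode pair counted by paired-end Illumina sequencing.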
Variant,area with substrate ENLYDQS,area with substrate ENLYEQS,area with substrate ENLYGQS,area with substrate ENLYHQS,area with substrate ENLYIQS,area with substrate ENLYKQS,area with substrate ENLYLQS,area with substrate ENLYMQS,area with substrate ENLYNQS,area with substrate ENLYPQS,area with substrate ENLYQQS,area with substrate ENLYRQS,area with substrate ENLYSQS,area with substrate ENLYTQS,area with substrate ENLYVQS,area with substrate ENLYWQS,area with substrate ENLYYQS
V220C,0.0667,0.0676,0.0298,0.0694,0.117,0.0375,0.0953,0.0866,0.0655,0.0751,0.0581,0.0731,0.0947,0.0737,0.0974,0.0843,
D149V,0.0516,0.082,,0.0586,0.0752,,,,0.0754,,,0.0631,0.0833,,,0.0873,
T30N,0.0615,0.065,0.067,0.0719,,0.0612,0.146,,0.109,0.0675,0.0616,0.0598,0.0716,0.0699,,0.0793,
V217D,0.0569,0.0705,,0.0699,,0.0552,,0.0667,,0.0593,,,0.0605,,,0.0696,
Q105Y,0.0642,,0.0766,0.0586,0.111,0.0631,,0.0705,0.0227,0.0666,0.0898,,0.0427,0.0858,0.159,,0.0496
P228Q,0.0615,0.0701,0.068,0.0439,,0.0638,,0.0919,0.0648,,,0.0611,0.0842,0.0808,0.12,0.0677,
R81M,0.0554,0.0642,0.0633,0.0718,0.0997,0.076,0.0969,0.0695,0.0581,0.0622,,0.0691,0.064,0.0811,0.103,0.0704,0.0551
F180E,0.0565,0.0391,0.0527,,,0.0074,,0.0261,0.033,,,,,0.0481,0.0565,,
I19N,0.0421,0.0551,0.0495,0.056,0.0812,,0.0619,0.0655,,,0.0534,0.0586,0.0106,0.0695,0.108,,
Q74C,0.0632,0.0695,0.0523,0.0756,0.0789,,,,0.0597,0.0759,0.0594,0.0521,0.043,,0.105,0.0978,0.0544
Q198C,0.0609,0.0682,0.0596,,,0.0589,0.0648,0.0818,0.0684,0.0667,0.0568,0.0533,0.066,0.0818,0.102,0.073,
T31K,0.0534,0.0692,0.074,0.059,0.0612,0.0651,0.0457,0.0584,0.045,0.0397,0.0594,,0.0641,0.0616,0.0552,0.0593,
H29K,0.0658,0.045,,0.0561,,,,,0.0884,,0.0629,,,,0.0887,,0.0572
G213L,0.0793,,0.0765,0.0704,0.0675,0.0613,,0.0537,0.065,,,0.0522,,,0.0678,,
R160S,0.0552,,,,,,0.115,,,,0.0709,,,,,,
G202Y,0.0585,0.0594,0.0638,0.058,,0.0564,0.0611,,0.0498,,,0.0615,0.0546,,0.0754,0.055,0.0608
S182N,0.0505,0.043,0.0473,0.0562,0.0675,0.0561,,,0.0366,0.078,,,0.0549,,0.101,,
H62R,0.0553,0.0637,0.0668,0.0672,,0.0586,0.0878,0.0977,0.0682,0.0586,0.0536,0.0546,,,0.136,,
I139P,0.0658,0.0633,0.0579,0.0688,0.13,0.0633,0.0843,,0.0403,0.0653,0.0639,,0.0849,0.0955,,0.0868,
N45M,0.0608,0.0608,0.0635,0.0675,,0.0708,,0.0619,0.0664,0.057,0.0579,0.0602,,0.0599,0.0472,0.0539,0.0551
A207P,0.0604,,,0.0729,0.0625,,,,,,0.0643,0.0601,0.0749,,,0.0694,
K221V,0.0644,0.0596,0.0551,0.0599,0.0983,0.0659,,,0.0618,0.0608,,0.0678,,0.0681,,0.0724,
V183N,,0.0527,0.0703,0.0632,,0.0366,0.0855,0.0757,0.0607,0.0721,,,,,,0.0611,
G8Q,,0.0573,0.0636,0.0774,,,0.0878,,,0.0493,,0.0745,0.1,,,,
D91Q,,0.0694,0.0622,0.0653,,0.0194,,,0.0566,,0.0575,,0.0472,0.0856,,,0.0355
G28F,,0.0594,0.0659,0.057,0.109,0.0616,0.105,0.0876,0.0648,0.0622,,0.0673,0.0679,,0.0958,0.056,0.0659

Variant,area with substrate ENLYDQS,area with substrate ENLYEQS,area with substrate ENLYGQS,area with substrate ENLYHQS,area with substrate ENLYIQS,area with substrate ENLYKQS,area with substrate ENLYLQS,area with substrate ENLYMQS,area with substrate ENLYNQS,area with substrate ENLYPQS,area with substrate ENLYQQS,area with substrate ENLYRQS,area with substrate ENLYSQS,area with substrate ENLYTQS,area with substrate ENLYVQS,area with substrate ENLYWQS,area with substrate ENLYYQS
F38G,,0.0386,,0.046,,,0.0414,0.0527,,0.0423,,0.0606,,,0.0728,,0.0331
L190R,,0.065,0.0529,,,0.0635,0.0389,0.0751,0.0698,0.0687,0.0693,0.0529,0.0664,,0.0712,,0.0691
T129V,,0.0722,0.047,0.0627,,0.0513,,0.0711,0.08,0.0357,0.0561,,,0.0747,0.129,0.0664,0.0714
L191D,,0.0663,0.0619,0.06,0.0676,,,0.0534,0.0506,0.0469,0.0526,0.0631,0.062,0.0581,0.0613,,
S158I,,0.0572,0.0576,0.0558,,,,,,0.0515,,,,,,0.0502,
E108D,,0.0961,0.046,0.0816,0.085,0.0727,,0.0766,0.0745,0.0946,0.0597,0.061,0.0918,0.0678,0.126,0.0824,0.0796
L77G,,0.0676,,,0.0664,0.0233,,0.0577,0.0642,,0.104,0.0706,,,0.0667,0.053,
G166L,,0.0336,0.0608,,0.0458,,,,,,0.0686,0.0467,,,,0.0436,
E195M,,0.114,,0.0692,,,,0.0778,0.0708,,,0.0636,,,0.117,,0.0667
S130P,,0.042,0.0763,0.0441,0.0567,0.066,,0.054,0.0497,0.041,,,,,,,
P93A,,0.0708,0.0603,,0.119,0.0439,0.0766,0.0845,0.0707,0.0671,0.064,,0.0671,,0.122,0.0744,0.0792
F6Q,,0.0288,0.0557,0.0608,0.132,0.0621,0.0901,0.074,0.074,0.0618,,0.0666,,,,0.0845,0.0609
V229I,,0.0666,0.0657,0.0294,0.101,0.0647,,,0.0721,0.0754,,0.0078,0.0661,,,,
F6V,,0.0654,0.0572,0.0789,0.122,,,,,0.0705,,0.0652,,,,,
C111W,,0.0703,,0.0536,0.121,,,,,0.0617,,,,0.0751,0.0767,0.0687,0.0586
P228V,,0.0621,0.0588,0.0826,0.119,0.0596,,0.0875,,0.0829,,,0.065,,,0.0694,
S154M,,0.0688,0.0677,0.0744,0.132,0.0653,,0.0879,,0.054,,,0.0508,0.055,0.112,0.079,
T114K,,0.0749,,0.0683,0.1,0.142,,,,0.0304,,0.0577,,,0.104,0.0882,0.051
G28K,,0.0607,,0.0619,0.0836,0.0244,,0.0712,0.0558,0.0666,,,0.0717,0.0745,0.0947,0.0776,0.0558
Q105E,,0.0516,0.0673,,,,,0.0879,,0.0802,0.0536,0.0716,0.0846,,0.121,0.0663,
T147G,,,0.0835,,0.069,0,,,,,,,0.0822,0.0498,,,
C131D,,,,0.0686,,,,,0.0722,,,0.049,0.0611,,,,
S154F,,,,0.0581,,,,0.0771,,0.077,,,0.0734,0.0543,,,0.0311
N172E,,,,0.0537,,,,0.0725,0.0838,,,,0.0519,,0.0187,,
D82R,,,,,0.0423,0.0596,0.0616,,,,,0.0454,,,,,
I86D,,,,,0.0516,,,0.0287,,,0.0314,0.0452,,,,0.054,0.0401
